Assay results as given in PubChem BioAssay AID1240 (Sanford-Burnham Center for Chemical Genomics, 2008).
Hit rate of the full screen: of about 50,000 compounds, about 800 (1.6%) showed an effect of 50% or more. The list shows a part of the results.

The compounds below were run against Bcl-2-like protein 10 (Homo sapiens) (UniProt Q9HD36) (assay: TR3 peptide-Bcl-B binding displacers, biochemical primary FP assay, phenotype converters (AID 1240;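 further: 0% = Bcl-B with tracer peptide and DMSO and 100% = tracer peptide lacking Bcl-B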)). Conditions: GST-Bcl-B / FITC-TR3 peptide fluorescence polarization; stronger effect = higher value; compound at 3.75 mg/L.
Chain of UniProt Q9HD36 (Q9HD36 whole entry, looked up): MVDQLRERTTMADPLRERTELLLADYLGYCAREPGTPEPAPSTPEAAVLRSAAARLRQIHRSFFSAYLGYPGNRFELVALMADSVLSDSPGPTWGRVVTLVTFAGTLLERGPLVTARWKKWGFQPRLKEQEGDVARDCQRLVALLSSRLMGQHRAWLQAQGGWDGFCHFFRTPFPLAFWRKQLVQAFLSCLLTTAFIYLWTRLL
For `CCOC(=O)C1=C(O)/C(=C/c2cccc(Oc3ccccc3)c2)SC1=Nc1ccccc1`, the displacement was -8.3%. `O=C(NNC1=C(C(=O)C(F)(F)F)CCC1)c1ccc(-c2ccccc2)cc1` was tested, and the displacement was -14.2%. `CCOC(=O)c1ccc(NC(=O)CN(c2ccc(Cl)cc2C)S(=O)(=O)c2ccccc2)cc1` gave a displacement of -7.4%. With `CCOC(=O)c1c(NC(=O)c2cccnc2)sc2c1CCCC2` the displacement was 11.4%. For `COc1ccc(-n2c(SCC(=O)c3ccccc3)nc3sc4c(c3c2=O)CCC4)cc1`, the displacement was -14.1%. Work on `COc1cc(/C=C2/SC(=S)N(CC(=O)Nc3ccc(F)c(Cl)c3)C2=O)cc(OC)c1OC` yielded a displacement of -4.7%. `CC(C)(C)c1ccc(/C=c2\sc3nnc(-c4ccccc4)n3c2=O)cc1` was tested, and the displacement was -4.5%. `O=C(O)C(Oc1ccc2c(-c3ccccc3)cc(=O)oc2c1)c1ccccc1` (stereo not given) showed a displacement of -9%. Compound `CC(C)Nc1nc(NC(N)=S)nc(NC(C)C)n1` has a displacement of -4%. Compound `CCN(CC)CCCCCCOc1ccc(C)c(C)c1` has a displacement of 3.7%. Compound `O=C(c1ccc(Cl)cc1Cl)N1CCN(c2nc3ccc([N+](=O)[O-])cc3s2)CC1` has a displacement of 100%. `CCOc1cccc(-c2nnc(NC(=O)c3ccccc3F)s2)c1` showed a displacement of 13.5%. `OCCNCCCOc1ccc(F)cc1` showed a displacement of 3.2%. `NNC(=O)CSc1ccc2ccccc2n1` gave a displacement of 4.9%. `N/C(=C/C(=O)c1ccc(Cl)cc1)C(F)(F)F` was tested, and the displacement was -2.6%. `COc1ccc(Cc2nc3ccccc3c(=O)n2/N=C/c2c[nH]c3ccccc23)cc1OC` gave a displacement of -4%. With `CC(=O)C1(Nc2ccccc2)CC(C)=NN1C(=O)c1ccccc1` (stereo not given) the displacement was 7%. With `O=C(Nc1nc(-c2ccccc2)cs1)c1cc2ccccc2oc1=O` the displacement was 1.7%. `COCCOC(=O)c1c(C)oc2ccc(O)cc12` showed a displacement of 10.8%. Work on `O=C(Nc1ccccc1[N+](=O)[O-])c1ccccc1Cl` yielded a displacement of 8.4%. With `Cc1cc(Cl)ccc1OCCCC(=O)Nc1cc(Cl)ccc1Cl` the displacement was 0.3%. Work on `NC(=O)c1cccc(N=Cc2ccc(C=Nc3cccc(C(N)=O)c3)cc2)c1` yielded a displacement of -7.2%. With `COc1ccc(OC)c(/C=C2/SC(=S)N(c3ccccc3OC)C2=O)c1` the displacement was -0.9%. Compound `COC(=O)c1ccc(NC(=O)CC2CCC2)cc1` has a displacement of 3.3%. Compound `NS(=O)(=O)c1ccc(N=Cc2ccc(Cl)cc2)cc1` has a displacement of 3.2%. `O=C(Nc1ccc([N+](=O)[O-])cn1)C1CC1` was tested, and the displacement was 12.6%. `Cc1ccc(S(N)(=O)=O)cc1NC(=O)c1ccc(C(C)(C)C)cc1` was tested, and the displacement was -10.3%. In the case of `CCOC(=O)Nc1cc([N+](=O)[O-])ccc1Cl`, the displacement is reported as 6.6%. Work on `COC(=O)c1sccc1NC(=O)c1cc(-c2ccc(OC)cc2OC)nc2ccccc12` yielded a displacement of 16.4%. `Brc1ccc(-c2nc(NCCCN3CCOCC3)c3ccccc3n2)cc1` showed a displacement of 10.2%. In the case of `COC(=O)CSc1nnc2n(-c3ccc(OC)cc3)c(=O)c3c4c(sc3n12)COC(C)(C)C4`, the displacement is reported as 3.8%. `CCc1c(C)nc2ccc(C)cc2c1SCC(=O)O` was tested, and the displacement was 9.8%. For `O=C(NCc1ccccc1)c1ccccc1Cl`, the displacement was 13%. For `O=C(c1ccco1)N1CCN(C/C=C/c2ccccc2)CC1`, the displacement was -7.3%. Work on `O=C(N1CCOCC1)n1nnc2ccccc21` yielded a displacement of 13.2%. `O=C(CN(c1ccc(Br)cc1)S(=O)(=O)c1ccccc1)Nc1ccccc1F` showed a displacement of -7.8%. `O=C1ON=C(c2ccc(Cl)cc2)/C1=C/c1ccc(O)cc1` was tested, and the displacement was 4.4%. `COc1ccccc1N(CC(=O)N(C)Cc1ccccc1)S(=O)(=O)c1ccccc1` gave a displacement of -0.1%. `Cc1ccc(C(=O)NCCNc2ccc([N+](=O)[O-])cc2Cl)cc1` showed a displacement of 1.9%. With `Cc1c(/C=C2\SC(=S)NC2=O)c(=O)n(-c2ccccc2)n1C` the displacement was 22.8%. In the case of `Cc1cccc(N2C(=O)/C(=C/c3ccco3)SC2=S)c1C`, the displacement is reported as 1.9%. Work on `CCOc1cc(/C=C2\SC(=S)N(CCS(=O)(=O)O)C2=O)ccc1O` yielded a displacement of -60.3%. For `CCOC(=O)c1c(-c2ccc(OC)cc2)csc1NC(=O)C(C)C`, the displacement was -1%. In the case of `Cc1ccc(C(=O)Nc2sc3c(c2C#N)CCCCC3)o1`, the displacement is reported as 3.6%. `COc1ccc(C(O)(CNCc2ccccc2)c2ccc(Br)cc2)cc1` (stereo not given) gave a displacement of 13.2%. For `COc1ccccc1C(=O)Nc1cccc(C(F)(F)F)c1`, the displacement was 19.7%. `Cc1nn(-c2ccccc2)c2c1C(c1ccc(O)cc1)C(C#N)=C(N)O2` (stereo not given) was tested, and the displacement was 7.2%. In the case of `O=C(NC(Nc1cccc([N+](=O)[O-])c1)C(Cl)(Cl)Cl)c1cccc(I)c1` (stereo not given), the displacement is reported as -9.6%. `O=C1CC(Sc2ncn[nH]2)C(=O)N1c1cc(Cl)ccc1Cl` (stereo not given) was tested, and the displacement was 16.7%. `C=CCn1c(SCC(=O)c2ccc(Br)cc2)nc2sc3c(c2c1=O)CCC3` showed a displacement of -3.1%. In the case of `COc1ccccc1N1CCN(C(=O)COc2ccc(Br)c(C)c2)CC1`, the displacement is reported as -6.5%. In the case of `O=[N+]([O-])c1ccc(S(=O)(=O)Nc2cccc3ccccc23)cc1`, the displacement is reported as 0.9%. Compound `CCCCOc1ccc(NC(=O)Nc2cc(F)c(F)cc2Cl)cc1` has a displacement of -14.3%. For `O=C(COc1ccc(Br)cc1)Nc1cccc([N+](=O)[O-])c1`, the displacement was 4.5%. `Cc1csc(N(CCC(N)=O)CCC(N)=O)n1` was tested, and the displacement was 2.1%. `CC1=CC(C)(C)Nc2ccc(OC(=O)C(C)N3C(=O)c4ccccc4C3=O)cc21` (stereo not given) was tested, and the displacement was 6.1%. For `Cc1ccc2c(c1)NC(C)(C)c1sn(-c3ccc(Cl)c(F)c3)c(=S)c1-2`, the displacement was 8.7%. With `CC12c3ccccc3C(c3ccccc31)C1C(=O)N(c3cccc([N+](=O)[O-])c3)C(=O)C12` (stereo not given) the displacement was 41.8%. `O=C(NCc1cccnc1)c1cnn2c1NC(c1ccc(F)cc1)CC2C(F)(F)F` (stereo not given) was tested, and the displacement was 5.1%. In the case of `O=C1CC(c2ccccc2)CC(O)=C1C=Nc1ccccc1-c1ccccc1` (stereo not given), the displacement is reported as -32.5%. Compound `Cc1ccc(NC(=O)C(=O)N/N=C/c2cccs2)cc1` has a displacement of 10.6%. `COC(=O)CCN1C(=O)/C(=C/c2ccc(OCc3ccc(Cl)cc3)c(OC)c2)SC1=S` was tested, and the displacement was 24.7%. `C=CCNC1=C(Cl)C(=O)c2ccccc2C1=O` showed a displacement of 8.2%. `CCOC(=O)C(=CNc1cccc(C(=O)O)c1)C(=O)OCC` showed a displacement of 7.4%. Compound `O=C(Nc1cccc(O)c1)c1cccnc1` has a displacement of -5.9%. In the case of `O=C(CN1CC[n+]2c(-c3cccs3)csc21)c1ccccc1`, the displacement is reported as -8.6%. Compound `COc1ccc(OC)c(N2C(=O)CCC2=O)c1` has a displacement of 8.6%. Compound `COc1ccccc1N(CC(=O)Nc1ccc(Oc2ccccc2)cc1)S(=O)(=O)c1ccccc1` has a displacement of -6.2%. Compound `OC1CC(c2ccccc2)NC2(CCCCC2)C1` (stereo not given) has a displacement of 5%. Compound `CCOc1ccc(C(=O)Nc2ccc(OC(F)(F)F)cc2)cc1` has a displacement of -4.5%. With `O=C(COc1ccc(Br)cc1)Nc1ccc([N+](=O)[O-])cc1` the displacement was -0.4%. For `CC(=O)c1ccc(NC(=O)c2ccc3c(c2)C(=O)N(c2ccc(C)c(C)c2)C3=O)cc1`, the displacement was 8.9%. With `O=C(Nc1cc(C(F)(F)F)ccc1Cl)C1CC(=O)N(c2ccc(Br)cc2)C1` (stereo not given) the displacement was 12.1%. With `O=c1sc2ccccc2c(N2CCN(c3ccccc3)CC2)c1[N+](=O)[O-]` the displacement was -11.1%. `Cc1c(NC(=O)/C=C/c2cn(-c3ccccc3)nc2-c2ccccc2)c(=O)n(-c2ccccc2)n1C` was tested, and the displacement was 70%. With `CC(C)(C)C1CCc2c(sc(NC(=O)c3cccs3)c2C(N)=O)C1` (stereo not given) the displacement was -9.9%. Compound `CCOc1ccc(C(=O)COC(=O)c2ccc(C)cc2)cc1` has a displacement of 2.4%. `CCCCCC(=O)c1c(C)nn(C)c1C` was tested, and the displacement was 10.7%. In the case of `CCOC(=O)C1=C(C)N=c2s/c(=C\c3sccc3C)c(=O)n2C1c1cccs1` (stereo not given), the displacement is reported as 12.4%. For `C=CCOC(=O)C1=C(C)NC(C)=C(C(=O)OCC=C)C1c1ccc(C)cc1`, the displacement was 7.3%. `COc1ccc(NC(=O)Nc2nnc(-c3ccc(C)cc3)s2)cc1` gave a displacement of 13.2%. `O=C(NCCCO)C(=O)NCCc1ccc(Cl)cc1` was tested, and the displacement was 8.8%. For `O=C(CSc1nnnn1-c1ccccc1)Nc1cc2c(cc1Br)OCCO2`, the displacement was 2.5%. With `CCOc1ccccc1NC(=O)c1ccc(OC)cc1OC` the displacement was 10.5%. `Cc1cc([N+](=O)[O-])ccc1NC(=O)COc1ccccc1C` was tested, and the displacement was 2.4%. For `CC1=C(C(=O)Nc2cccc(C)c2)C(c2ccc(Br)cc2)NC(=S)N1` (stereo not given), the displacement was 3.2%. `CCCc1c(C)c2c(OCC(=O)O)cc(OCC(=O)O)cc2oc1=O` was tested, and the displacement was 18.9%. `COCCOC(=O)c1c(C)oc2ccc(OCC(=O)C(C)(C)C)cc12` gave a displacement of 9%. For `COC(=O)c1c(NC(=O)c2cccc(F)c2)sc2c1CCC(C)C2` (stereo not given), the displacement was 4.5%. Compound `Cn1nccc1C(=O)Nc1nc2ccccc2s1` has a displacement of -3.1%. Work on `CC(C)(C)c1ccc(Oc2coc3c(CN4CCOCC4)c(O)ccc3c2=O)cc1` yielded a displacement of 9%. Work on `N#C/C(=C/c1ccc(-c2ccc(Cl)cc2)o1)C(=O)O` yielded a displacement of -0.8%. For `CCN(CC)CCCNC(=O)c1nn2c(c1Cl)NC(c1ccc(C)cc1)CC2C(F)(F)F` (stereo not given), the displacement was 0.5%. `CCOC(=O)CN1C(=O)/C(=C2\SC(=O)NC2=O)c2ccccc21` showed a displacement of -4.7%. Compound `O=C1CC(C(F)(F)C(F)(F)C(F)(F)C(F)(F)F)=Nc2ccccc2N1` has a displacement of -24.2%. Work on `COc1ccc(NC(=O)c2ccc(Nc3nnc(C)c4ccccc34)cc2)cc1` yielded a displacement of -12.4%. For `CC(=O)NCCOc1ccc(C(=O)O)cc1`, the displacement was 4.9%. For `O=C1C(=O)N(CCCn2ccnc2)C(c2cccc([N+](=O)[O-])c2)/C1=C(\O)c1ccc(Cl)cc1` (stereo not given), the displacement was 10.7%. Work on `COc1cc(CN2CCN(Cc3ccc(C)cc3C)CC2)cc(OC)c1OC` yielded a displacement of -0.9%. `Cn1c(=O)n(C)c2cc(/C=C3/C(=O)NN(c4ccccc4)C3=O)ccc21` was tested, and the displacement was 10.6%. Work on `COc1ccc(NC2=C(Cl)C(=O)N(c3ccccc3Cl)C2=O)c(OC)c1` yielded a displacement of 8.7%. In the case of `C(=Nc1ccc2c(c1)ncn2-c1ccccc1)c1c[nH]c2ccccc12`, the displacement is reported as 11.4%. `CC1=NNC(=O)C1CC(=O)N/N=C/c1cccc(OCc2ccccc2)c1` (stereo not given) was tested, and the displacement was -8.1%. With `O=C(CSc1nc2ccccc2[nH]1)NCc1ccccc1` the displacement was -11.6%. `CCN(CC)C(=O)CN(c1ccc(C)cc1)S(C)(=O)=O` was tested, and the displacement was 1.4%. For `CN(C)c1ccc(/C=C/C(=O)c2c(-c3ccccc3)c3cc(Cl)ccc3[nH]c2=O)cc1`, the displacement was 11.2%. Compound `O=C(NCCc1cccc(Cl)c1)c1cccc([N+](=O)[O-])c1` has a displacement of 14.1%. With `COc1cccc(N2C(=O)/C(=C/c3ccccc3Cl)SC2=S)c1` the displacement was 17.6%. `O=C1CC(c2ccccc2)CC2=C1C(c1cccnc1)N(C(=O)c1ccccc1)c1ccccc1N2` (stereo not given) gave a displacement of -15.8%. With `COc1cccc(C2C(C(C)=O)=C(O)C(=O)N2CC2CCCO2)c1` (stereo not given) the displacement was -1.4%.
